Test results from the supplement of paper PMC6206098.
± gives the uncertainty stated by the source. Shown are siRNA guide strands that differ only in the seed, positions 2 to 7.

How the values were obtained:
3LL = assay: cell viability relative to siNT1 control; higher = less toxic; conditions: concentration: 10 nM; 96 h; Mus musculus;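 note: Luminescence-based viability of cells reverse transfected in 384-well plates with lipid-complexed siRNAs built on a non-toxic 19mer backbone whose passenger strand carries 2′-O-methyl groups at positions 1 and 2, triplicates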
Experimental: (§1)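 Arrayed screen of 4096 siRNA duplexes, each carrying one of all possible 6mer seeds at guide-strand positions 2-7 in a fixed neutral 19mer scaffold (constant flanks: U at position 1, then ACAUGUAAACCA, plus a 3' AA overhang). The passenger strand is 2'-O-methylated at positions 1-2 so only the guide strand loads into RISC. Duplexes were reverse-transfected at 10 nM with RNAiMAX in triplicate in 384-well plates; viability was read by CellTiter-Glo ATP content 96 h after transfection. Values are % viability normalised to lipid-only wells (HeyA8, H460, M565) or to siNT1 (3LL).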

M565 = assay: cell viability relative to lipid-only control; HeyA8 human ovarian and H460 human lung cancer; M565 mouse liver and 3LL mouse lung cancer; siNT1 is a non-toxic control siRNA; higher = less toxic; conditions: concentration: 10 nM; 96 h; Mus musculus
Experimental: as §1

HeyA8 = assay: as above; conditions: concentration: 10 nM; 96 h; Homo sapiens
Experimental: as §1

H460 = assay: as above; conditions: concentration: 10 nM; 96 h; Homo sapiens
Experimental: as §1
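Throughout, for cell viability relative to lipid-only control: reverse lipid transfection in 384-well plates, in triplicate, of duplexes on a non-toxic 19mer backbone with passenger strand 2′-O-methylated at positions 1 and 2, luminescence viability read-out.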

| Sequence | cell viability (3LL) [%] | cell viability (M565) [%] | cell viability (HeyA8) [%] | cell viability (H460) [%] |
| --- | --- | --- | --- | --- |
| UAGUAUCACAUGUAAACCAAA | 71.1 ± 6.1 | 36.2 ± 3.1 | 16.6 ± 1.7 | 44.6 ± 10 |
| UAGUAUGACAUGUAAACCAAA | 88.4 ± 3.7 | 33.7 ± 6.5 | 53.06 ± 0.46 | 62.7 ± 2.7 |
| UAGUAUUACAUGUAAACCAAA | 85 ± 2.5 | 63.8 ± 10 | 38.2 ± 4.3 | 46.7 ± 5.7 |
| UAGUCAAACAUGUAAACCAAA | 76.1 ± 3.4 | 34.2 ± 4.7 | 59 ± 12 | 70.7 ± 6.8 |
| UAGUCACACAUGUAAACCAAA | 37.6 ± 7.9 | 27.9 ± 5.1 | 32.4 ± 2.1 | 47.3 ± 7.9 |
| UAGUCAGACAUGUAAACCAAA | 48.3 ± 2.8 | 26.4 ± 4.9 | 33.9 ± 3.5 | 63.3 ± 13 |
| UAGUCAUACAUGUAAACCAAA | 57.4 ± 5.9 | 52.7 ± 7.8 | 44.2 ± 5.2 | 86.7 ± 18 |
| UAGUCCAACAUGUAAACCAAA | 40.8 ± 8.3 | 24 ± 3.9 | 51.6 ± 9.4 | 75.1 ± 21 |
| UAGUCCCACAUGUAAACCAAA | 3.71 ± 0.28 | 3.23 ± 0.65 | 32.2 ± 3.4 | 30.8 ± 8.4 |
| UAGUCCGACAUGUAAACCAAA | 70.4 ± 1.6 | 52.3 ± 2.6 | 52.7 ± 3.6 | 80.2 ± 10 |
| UAGUCCUACAUGUAAACCAAA | 24.8 ± 2.3 | 20.4 ± 2.8 | 11.8 ± 2.4 | 48.6 ± 9 |
| UAGUCGAACAUGUAAACCAAA | 79.2 ± 9.1 | 32.2 ± 3.6 | 74 ± 5.3 | 87 ± 17 |
| UAGUCGCACAUGUAAACCAAA | 31.8 ± 4.5 | 57.6 ± 2.1 | 32.5 ± 3.9 | 64.7 ± 12 |
| UAGUCGGACAUGUAAACCAAA | 39.7 ± 7.9 | 41.9 ± 1.2 | 71.7 ± 2.4 | 70.4 ± 11 |
| UAGUCGUACAUGUAAACCAAA | 48.7 ± 5.7 | 52.3 ± 2.8 | 32.2 ± 1.6 | 74.1 ± 11 |
| UAGUCUAACAUGUAAACCAAA | 94.8 ± 7.2 | 52.9 ± 8.5 | 88.4 ± 6.5 | 77.5 ± 12 |
| UAGUCUCACAUGUAAACCAAA | 4.77 ± 0.94 | 9.31 ± 2.7 | 32.3 ± 4.3 | 54.9 ± 11 |
| UAGUCUGACAUGUAAACCAAA | 87.8 ± 3.1 | 21.3 ± 5.8 | 52.4 ± 0.96 | 72.8 ± 14 |
| UAGUCUUACAUGUAAACCAAA | 34.5 ± 5.9 | 18.8 ± 2.4 | 69.9 ± 6.8 | 89.8 ± 12 |
| UAGUGAAACAUGUAAACCAAA | 92.4 ± 7.6 | 49.5 ± 4.4 | 91.9 ± 6.6 | 72.6 ± 8.1 |
| UAGUGACACAUGUAAACCAAA | 33.7 ± 3.9 | 42.7 ± 11 | 41.5 ± 5.2 | 28.6 ± 3.9 |
| UAGUGAGACAUGUAAACCAAA | 67.7 ± 5.6 | 43.9 ± 8 | 67.5 ± 2.8 | 38.6 ± 8.3 |

| Sequence | cell viability (3LL) [%] | cell viability (M565) [%] | cell viability (HeyA8) [%] | cell viability (H460) [%] |
| --- | --- | --- | --- | --- |
| UAGUGAUACAUGUAAACCAAA | 26.9 ± 1.4 | 39.2 ± 4.6 | 23.2 ± 1.2 | 22.4 ± 0.58 |
| UAGUGCAACAUGUAAACCAAA | 87.8 ± 2.3 | 117 ± 18 | 81.6 ± 8 | 91.3 ± 19 |
| UAGUGCCACAUGUAAACCAAA | 30.6 ± 4.1 | 39.9 ± 4.5 | 57.1 ± 2.4 | 48.1 ± 4.2 |
| UAGUGCGACAUGUAAACCAAA | 80.9 ± 9.9 | 81.4 ± 4.1 | 90.6 ± 17 | 70.3 ± 1.9 |
| UAGUGCUACAUGUAAACCAAA | 86 ± 5.5 | 116 ± 22 | 70 ± 3.8 | 76.2 ± 8.3 |
| UAGUGGAACAUGUAAACCAAA | 91.2 ± 6.7 | 59.7 ± 2.6 | 30.3 ± 0.96 | 51.4 ± 10 |
| UAGUGGCACAUGUAAACCAAA | 2.94 ± 0.21 | 58.8 ± 3.9 | 18.6 ± 1.2 | 25.4 ± 5.3 |
| UAGUGGGACAUGUAAACCAAA | 5.58 ± 1.2 | 18.5 ± 3.7 | 3.8 ± 0.29 | 37.7 ± 3.9 |
| UAGUGGUACAUGUAAACCAAA | 6.34 ± 0.57 | 80.7 ± 11 | 37.5 ± 2.1 | 58 ± 5.4 |
| UAGUGUAACAUGUAAACCAAA | 83.87 ± 0.74 | 33.7 ± 4.6 | 63.6 ± 6.2 | 62.5 ± 11 |
| UAGUGUCACAUGUAAACCAAA | 21 ± 5.2 | 39.5 ± 2.9 | 61.4 ± 4 | 55.9 ± 6.4 |
| UAGUGUGACAUGUAAACCAAA | 93.3 ± 8 | 57.9 ± 8.9 | 55.8 ± 4.5 | 56 ± 1.1 |
| UAGUGUUACAUGUAAACCAAA | 83.5 ± 3.1 | 12.1 ± 3 | 61.7 ± 8.4 | 66.7 ± 16 |
| UAGUUAAACAUGUAAACCAAA | 84.7 ± 8.3 | 69.6 ± 2.6 | 63.6 ± 3.2 | 65.3 ± 16 |
| UAGUUACACAUGUAAACCAAA | 55.5 ± 10 | 12.7 ± 1.6 | 20.1 ± 1.4 | 37.8 ± 5.7 |
| UAGUUAGACAUGUAAACCAAA | 69.4 ± 7.9 | 54.9 ± 2.9 | 66 ± 4.8 | 57.9 ± 5.5 |
| UAGUUAUACAUGUAAACCAAA | 89.9 ± 7.5 | 43.2 ± 1.1 | 22.8 ± 2.4 | 52.3 ± 12 |
| UAGUUCAACAUGUAAACCAAA | 74.4 ± 7.9 | 26.9 ± 2.5 | 41 ± 3.9 | 48.8 ± 5.6 |
| UAGUUCCACAUGUAAACCAAA | 6.46 ± 1 | 16.8 ± 1.9 | 12.8 ± 0.91 | 16.6 ± 1.7 |
| UAGUUCGACAUGUAAACCAAA | 77.9 ± 1.3 | 23.3 ± 1.3 | 61 ± 5.4 | 62.8 ± 7.8 |
| UAGUUCUACAUGUAAACCAAA | 52.2 ± 1.7 | 15.9 ± 1 | 26.3 ± 2.2 | 48.6 ± 16 |
| UAGUUGAACAUGUAAACCAAA | 79.6 ± 7.2 | 56.5 ± 6.3 | 31.5 ± 5.5 | 52 ± 11 |
